Experimental data: PMC4336329 (PLoS ONE, 2015)
Out of some 310,000 compounds screened, about 2,200 (0.71%) showed an effect of 50% or more. The effect is printed as a negative number. The list shows a part of the results.

Target: human ether-à-go-go-related gene (hERG) potassium channel (human, UniProt Q12809)
Test: primary screen, population patch clamp on CHO cells stably expressing hERG

Chain of human ether-à-go-go-related gene (hERG) potassium channel (Q12809 whole entry, looked up): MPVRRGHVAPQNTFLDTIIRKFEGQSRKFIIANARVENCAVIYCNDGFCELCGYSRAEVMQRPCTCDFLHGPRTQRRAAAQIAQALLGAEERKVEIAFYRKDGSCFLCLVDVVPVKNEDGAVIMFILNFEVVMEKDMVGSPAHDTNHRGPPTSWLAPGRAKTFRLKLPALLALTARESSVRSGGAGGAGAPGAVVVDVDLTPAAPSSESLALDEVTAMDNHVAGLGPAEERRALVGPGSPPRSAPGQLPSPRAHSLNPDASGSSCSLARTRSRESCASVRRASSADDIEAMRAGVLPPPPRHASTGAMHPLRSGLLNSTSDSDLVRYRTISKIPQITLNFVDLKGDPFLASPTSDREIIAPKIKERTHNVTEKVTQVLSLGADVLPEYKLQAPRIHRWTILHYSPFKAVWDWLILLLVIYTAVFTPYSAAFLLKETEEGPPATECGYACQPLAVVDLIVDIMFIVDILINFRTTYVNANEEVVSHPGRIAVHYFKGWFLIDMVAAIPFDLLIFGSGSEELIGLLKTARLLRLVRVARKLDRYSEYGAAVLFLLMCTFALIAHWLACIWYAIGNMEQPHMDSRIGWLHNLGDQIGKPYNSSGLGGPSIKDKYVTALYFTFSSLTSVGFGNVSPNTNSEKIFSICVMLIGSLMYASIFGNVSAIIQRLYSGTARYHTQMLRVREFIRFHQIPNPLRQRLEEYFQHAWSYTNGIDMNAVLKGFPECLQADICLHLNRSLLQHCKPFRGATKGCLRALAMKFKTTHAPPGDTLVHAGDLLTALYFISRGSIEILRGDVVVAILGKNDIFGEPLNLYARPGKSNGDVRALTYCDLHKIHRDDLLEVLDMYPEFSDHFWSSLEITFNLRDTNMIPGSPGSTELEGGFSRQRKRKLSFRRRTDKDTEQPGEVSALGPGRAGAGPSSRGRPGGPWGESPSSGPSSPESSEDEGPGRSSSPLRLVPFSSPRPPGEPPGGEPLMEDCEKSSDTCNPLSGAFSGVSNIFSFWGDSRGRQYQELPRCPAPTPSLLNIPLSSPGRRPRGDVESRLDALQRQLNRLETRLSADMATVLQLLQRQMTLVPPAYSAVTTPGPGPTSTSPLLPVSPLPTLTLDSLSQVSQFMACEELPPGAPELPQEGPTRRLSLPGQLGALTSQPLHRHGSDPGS

Compared with `CCOc1ccc(/C=C/C(O)=C2/C(=O)N(C)C3(C)CC2c2ccccc2O3)cc1OC` (centres unmarked), `COC(=O)[C@H](Cc1ccccc1)NC(=O)O[C@@H]1C(=O)c2cc(OC)ccc2O[C@H]1c1ccc(OC)c(Br)c1` is higher in “hERG current change (%, negative = inhibition) at 1uM” value: 13.7% for the first, 15.1% for the second.

First: CC(C)Cn1c(N)c(C(=O)CSc2nnnn2C)c(=O)n(C)c1=O
Second: CCOc1ccc(NC(=O)CN(C)C(=O)Cn2cnc3c2c(=O)n(C)c(=O)n3C)cc1OCC
The “hERG current change (%, negative = inhibition) at 1uM” value of the first is higher: 11.7% for the first, 2.45% for the second.

Going from `Cc1ccc(CNS(=O)(=O)c2ccc3c(c2)NC(=O)CS3)cc1` to `COc1ccc(NC(=O)C2CCC(=O)N2S(=O)(=O)c2ccc(C)cc2)c(OC)c1` (centres unmarked), the “hERG current change (%, negative = inhibition) at 1uM” value falls from 8.53% to 1.85%.

Compared with `Cc1n[nH]c(=O)c2c(NC(=O)CSc3nnc(-c4ccncc4)n3C)oc(C)c12`, `Cn1c(SCC(=O)Nc2nc3c(s2)CCCC3)nnc1-c1ccccc1` is lower in “hERG current change (%, negative = inhibition) at 1uM” value: 11.1% for the first, 6.91% for the second.

Compared with `COc1cc2c(cc1OC)CN(c1ccc([N+](=O)[O-])cc1Cl)CC2`, `O=c1c2c(-c3ccc([N+](=O)[O-])cc3)csc2nc2n1CCCCC2` is lower in “hERG current change (%, negative = inhibition) at 1uM” value: 0.193% for the first, -9.37% for the second.

Going from `O=C(CCN1C(=O)C2C3C=CC(C3)C2C1=O)NCCc1ccccc1Cl` (centres unmarked) to `C=CCN1C(=O)/C(=c2\sc3nc(=O)c(Cc4ccccc4Cl)nn3c2=O)c2ccccc21`, the “hERG current change (%, negative = inhibition) at 1uM” value rises from 9.05% to 14.7%.

First: COc1cc2[nH]c(=S)n(N(C(C)=O)C(C)=O)c(=O)c2cc1OC
Second: COc1ccc(C(C)=O)cc1COC(=O)c1cnc(Cl)c(Cl)c1
The “hERG current change (%, negative = inhibition) at 1uM” value of the first is lower: 6.09% for the first, 6.91% for the second.

Compared with `CC(NC(=O)c1ccccc1NC(=O)c1ccncc1)c1ccccc1` (centres unmarked), `Cc1ccccc1NC(=O)C(C)c1cccc(C(=O)c2ccccc2)c1` (centres unmarked) is lower in “hERG current change (%, negative = inhibition) at 1uM” value: 9.1% for the first, 4.76% for the second.

Compared with `COc1ccccc1C1=NOC(C)(c2sc(-c3ccc(Cl)cc3)nc2C)C1` (centres unmarked), `CSc1cc(-c2ccncc2)nc(-c2ccc(Cl)cc2)c1` is lower in “hERG current change (%, negative = inhibition) at 1uM” value: 13.1% for the first, 7.29% for the second.

Compared with `O=C(CCCSc1nc2ccccc2s1)NCc1ccc2c(c1)OCO2`, `Cc1cccc(NC(=S)NNC(=O)c2ccc3c(c2)OCO3)c1` is higher in “hERG current change (%, negative = inhibition) at 1uM” value: -2.37% for the first, 19% for the second.

First: OC[C@H]1O[C@@H](O[C@@H]2[C@@H](CO)O[C@@](O)(CO)[C@H]2O)[C@H](O)[C@@H](O)[C@H]1O
Second: OCC1OC(Oc2cccc3ccccc23)C(O)C(O)C1O (centres unmarked)
The “hERG current change (%, negative = inhibition) at 1uM” value of the first is higher: 18.8% for the first, 13% for the second.

Going from `COC(=O)c1c(-c2ccc(F)cc2)csc1NC(=O)c1ccco1` to `COc1ccc(C)cc1NC(=O)CCNC(=O)c1ccco1`, the “hERG current change (%, negative = inhibition) at 1uM” value falls from 18% to 8.32%.

First: O=C(NCCc1ccc(F)cc1)c1cccs1
Second: O=C(O)C1=C[C@H](c2cccs2)C[C@H](OCc2ccc(CO)cc2)O1
The “hERG current change (%, negative = inhibition) at 1uM” value of the first is higher: 11.2% for the first, 9.03% for the second.

Compared with `COC(=O)c1sc(-c2ccccc2)cc1NC(C)=O`, `CC(=O)Nc1ccc(SCC(=O)c2cc(C)n(-c3ccccc3)c2C)cc1` is lower in “hERG current change (%, negative = inhibition) at 1uM” value: 20.8% for the first, -5.05% for the second.

Going from `Cc1ccc(C)c(S(=O)(=O)N2CCCC2CNC(=O)C(=O)NCc2ccccc2)c1` (centres unmarked) to `CCS(=O)(=O)N1CCN(c2ccc([N+](=O)[O-])c(NCc3ccccc3)c2)CC1`, the “hERG current change (%, negative = inhibition) at 1uM” value rises from -15.7% to 1.14%.

Compared with `CC(=O)Nc1ccc(S(=O)(=O)N2CCN(c3ccccn3)CC2)cc1`, `CC(Oc1ccc(Br)cc1)C(=O)N1CCN(c2ccccn2)CC1` (centres unmarked) is lower in “hERG current change (%, negative = inhibition) at 1uM” value: 5.71% for the first, -0.257% for the second.

First: O=C(CSc1nnc(-c2ccccc2)o1)N1CCOCC1
Second: O=C(c1cn(-c2ccccc2)nc1-c1cccc([N+](=O)[O-])c1)N1CCCCC1
The “hERG current change (%, negative = inhibition) at 1uM” value of the first is higher: 10% for the first, 8.86% for the second.

Going from `CCOC(=O)Cn1nc(C)c(NC(=O)COc2ccc(F)cc2F)c1C` to `CCOC(=O)c1nn(-c2ccc(C)cc2)c(C)c1C(C)=O`, the “hERG current change (%, negative = inhibition) at 1uM” value rises from 7.89% to 10.6%.

First: CC1(C)C(=O)OC(C(=O)c2ccc(C(C)(C)C)cc2)C(C)(C)C1=O (centres unmarked)
Second: COc1ccc2cc([C@H](C)C(=O)[O-])ccc2c1.[Na+]
The “hERG current change (%, negative = inhibition) at 1uM” value of the first is lower: 10.7% for the first, 12.2% for the second.

First: O=C(c1ccc2nc(Cc3cccc(Cl)c3)oc2c1)N1CCC(O)CC1
Second: COc1ccc(-c2csc(N3CCN(C(=O)c4ccco4)CC3)n2)cc1
The “hERG current change (%, negative = inhibition) at 1uM” value of the first is higher: 14.3% for the first, 0.773% for the second.

Going from `CCN1CCN(c2ccc(S(=O)(=O)N3CCOCC3)cc2NC(=O)c2ccc(C)c(C)c2)CC1` to `CN1CCN(c2ccc(S(=O)(=O)N3CCCCC3)cc2NC(=O)COc2cccc(Cl)c2)CC1`, the “hERG current change (%, negative = inhibition) at 1uM” value falls from 2.55% to -1.99%.

Compared with `CCCN(C(=O)CSCc1ccccc1C)c1c(N)n(Cc2ccccc2)c(=O)[nH]c1=O`, `O=C(NCc1ccccc1)c1ccc2c(=O)n(CCCN3CCCC3=O)c(=S)[nH]c2c1` is higher in “hERG current change (%, negative = inhibition) at 1uM” value: 7.56% for the first, 10.4% for the second.

Compared with `O=C(Nc1ccc(S(=O)(=O)N2CCCCC2)cc1)c1ccco1`, `O=C(N/C(=C\c1ccccc1)C(=O)N1CCCCC1)c1ccco1` is higher in “hERG current change (%, negative = inhibition) at 1uM” value: -5.45% for the first, 14% for the second.

Compared with `CCN1CCN(c2nc(N)c([N+](=O)[O-])c(Nc3cccc(C)c3)n2)CC1`, `CCOC(=O)N1CCN(CC(=O)Nc2cc(OCC)ccc2OCC)CC1.Cl` is lower in “hERG current change (%, negative = inhibition) at 1uM” value: -18.4% for the first, -31.1% for the second.

Compared with `Cc1ccc(C(=O)N2CCC(C)CC2)cc1NC1=NC2CS(=O)(=O)CC2S1` (centres unmarked), `Cc1ccc(OCC(=O)N2CCN(C(=O)c3ccc([N+](=O)[O-])cc3)CC2)cc1` is lower in “hERG current change (%, negative = inhibition) at 1uM” value: 6.45% for the first, -19.5% for the second.

Going from `COc1ccc(C2/C=C\CN(Cc3ccncc3)CC(=O)N2Cc2ccc(F)cc2)cc1` (centres unmarked) to `COc1ccc(CCNCC(=O)Nc2ccc(OC(F)F)cc2)cc1`, the “hERG current change (%, negative = inhibition) at 1uM” value falls from -4.62% to -37.4%.

First: CCOC(=O)CNC(=O)N1CCC(CCOc2ccccc2)(C(=O)OCC)CC1
Second: CCOC(=O)C1(CCc2ccccc2)CCN(Cc2ccc3c(c2)OCCO3)CC1
The “hERG current change (%, negative = inhibition) at 1uM” value of the first is higher: 10.6% for the first, -91.4% for the second.

Going from `Cc1ccc(CN2CC(C(=O)NC(c3nc4ccccc4[nH]3)C(C)C)CC2=O)cc1` (centres unmarked) to `Cc1ccc(C(CC(=O)NCc2ccco2)c2ccc(OC(C)C)cc2)cc1` (centres unmarked), the “hERG current change (%, negative = inhibition) at 1uM” value falls from 14.9% to 4.99%.

Compared with `O=[N+]([O-])c1ccc(CSc2ncnc3ccccc23)cc1`, `O=C1C(Cc2cccc([N+](=O)[O-])c2)S/C(=N/N=C/c2ccco2)N1c1ccccc1` (centres unmarked) is higher in “hERG current change (%, negative = inhibition) at 1uM” value: -2.34% for the first, 6.64% for the second.

Going from `O=[N+]([O-])c1ccc(OCC(O)CN(C2CCCCC2)C2CCCCC2)cc1` (centres unmarked) to `OC(COc1ccc(Br)cc1)CN1CCN(c2ccccc2)CC1` (centres unmarked), the “hERG current change (%, negative = inhibition) at 1uM” value rises from -80.4% to 12%.

Compared with `CCCn1c(=O)c2[nH]c(C3CCCC3)nc2n(CCC)c1=O`, `COC(=O)CSc1nc(SCc2ccccc2Cl)nc2c1CCCC2` is lower in “hERG current change (%, negative = inhibition) at 1uM” value: 13.9% for the first, 3.95% for the second.

Going from `O=C(Nc1ccc(F)c([N+](=O)[O-])c1)C1CCCO1` (centres unmarked) to `O=C(Nc1ccccn1)Nc1ccccc1[N+](=O)[O-]`, the “hERG current change (%, negative = inhibition) at 1uM” value falls from 14.2% to 9.93%.

Compared with `O=C(CCCCCCCC(=O)NCC1CCCO1)NCC1CCCO1` (centres unmarked), `COc1ccc(/C=C/C(=O)OCC(=O)N2CCCCCC2)c(OC)c1` is lower in “hERG current change (%, negative = inhibition) at 1uM” value: 5.35% for the first, -0.988% for the second.

First: Cc1c(Cl)c([N+](=O)[O-])nn1Cc1ccc(C(=O)N/N=C\c2cc(Cl)ccc2O)o1
Second: COc1cc(Cl)ccc1OCc1cc(C(=O)NC(C)Cc2cccnc2)no1 (centres unmarked)
The “hERG current change (%, negative = inhibition) at 1uM” value of the first is higher: 7.63% for the first, -2.27% for the second.

First: CC(=O)Nc1ccc(N=Cc2ccc[nH]2)cc1
Second: Cc1ccc(/C=C(\C#N)C(=O)NC(C)c2ccccc2)o1 (centres unmarked)
The “hERG current change (%, negative = inhibition) at 1uM” value of the first is lower: 0.222% for the first, 19.8% for the second.

First: C=CCC1=C/C(=C\c2c(N)n3nc(CC(=O)N4CCOCC4)sc3nc2=O)C=C(OC)C1=O
Second: Cc1nc2sc(C(c3cccc(F)c3)N3CCCCC3)c(O)n2n1 (centres unmarked)
The “hERG current change (%, negative = inhibition) at 1uM” value of the first is higher: 15% for the first, 7.22% for the second.

First: Cc1ccc(-c2cc(C(=O)Nc3ccccc3C(N)=O)c3ccccc3n2)o1
Second: COc1ccc(CN(C(=O)CO/N=C/c2ccccc2)c2ccccc2C(=O)O)cc1
The “hERG current change (%, negative = inhibition) at 1uM” value of the first is higher: 19.9% for the first, 11.1% for the second.

Compared with `CCOc1ccc(OCc2ccc(C(=O)N3N=C(C(F)F)CC3(O)C(F)F)o2)cc1` (centres unmarked), `CC(CNC(=O)c1ccc(Br)o1)NC(=O)c1ccc(Br)o1` (centres unmarked) is lower in “hERG current change (%, negative = inhibition) at 1uM” value: 12.5% for the first, 8.69% for the second.

First: CN(C)c1ccc(S(=O)(=O)N(C)C)cc1[N+](=O)[O-]
Second: Cc1cc(C)cc(NS(=O)(=O)c2coc(C(N)=O)c2)c1
The “hERG current change (%, negative = inhibition) at 1uM” value of the first is higher: 10.7% for the first, 5.89% for the second.

First: COc1ccccc1CN(C)C(=O)CN1CCN(C(=O)c2cccs2)CC1
Second: COc1ccccc1NC(=O)C/C(C)=N/NC(=O)C12CC3CC(CC(C3)C1)C2
The “hERG current change (%, negative = inhibition) at 1uM” value of the first is lower: 7.03% for the first, 9.83% for the second.

First: N#Cc1sc2nccc(Nc3ccccc3)c2c1N
Second: Cc1ccc(N2CN=c3s/c(=C\c4ccccn4)c(=O)n3C2)cc1
The “hERG current change (%, negative = inhibition) at 1uM” value of the first is lower: 9.26% for the first, 9.54% for the second.

Going from `CCOC(=O)C1=C(N)N2C(=O)CSC2=C(C(=O)OC)C1` to `Nc1c(C(=O)[O-])sc2nc3c(cc12)CCCC3`, the “hERG current change (%, negative = inhibition) at 1uM” value rises from 12.5% to 13.6%.

Compared with `C(/C=C/c1ccco1)=N/N1CCN(c2ccccc2)CC1`, `Cc1cccc(C)c1OCCSc1n[nH]c(N)n1` is higher in “hERG current change (%, negative = inhibition) at 1uM” value: 10.8% for the first, 12.1% for the second.
